Laboratory results from PubChem BioAssay AID624417 (National Center for Advancing Translational Sciences (NCATS), 2012).
In all, about 410,000 compounds went through this assay and about 6,400 (1.6%) were called active. Inconclusive results, whose numbers are uncertain, are shown with a selection of clear calls. The call rests on the fitted dose curve; in most records, active means well fitted inhibition curve with a large enough effect; inconclusive means small, poorly fitted or top-dose-only effect; inactive means no such curve, though single readings can be large or run the other way. No potency is given beside an inconclusive call; the fits are too rough.

target: Glucagon-like peptide 1 receptor (Homo sapiens) (UniProt P43220); test: qHTS of GLP-1 Receptor Inverse Agonists (Inhibition Mode); settings: HEK293 GLP-1R CRE-luciferase, luminescence, 24 h, GLP-1R form is constitutively active; activity change, negative = inhibition: at 38.3 µM (top of the series) unless noted; further: nearly all actives have a fitted effect of over 55% in size
Outline: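 Luminescence readout: a drop in cAMP-driven luciferase signal flags inverse agonism at a constitutively active GLP-1R stably expressed in HEK293. Compound exposure lasted 24 hr at 37 deg C, 5% CO2.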
On the % scale 0 is the no-effect control and ±100 the full control effect; potency means the concentration at half of the fitted maximal effect; tags describe the fitted curve by direction and shape.

Sequence of UniProt P43220 (P43220 whole entry, looked up): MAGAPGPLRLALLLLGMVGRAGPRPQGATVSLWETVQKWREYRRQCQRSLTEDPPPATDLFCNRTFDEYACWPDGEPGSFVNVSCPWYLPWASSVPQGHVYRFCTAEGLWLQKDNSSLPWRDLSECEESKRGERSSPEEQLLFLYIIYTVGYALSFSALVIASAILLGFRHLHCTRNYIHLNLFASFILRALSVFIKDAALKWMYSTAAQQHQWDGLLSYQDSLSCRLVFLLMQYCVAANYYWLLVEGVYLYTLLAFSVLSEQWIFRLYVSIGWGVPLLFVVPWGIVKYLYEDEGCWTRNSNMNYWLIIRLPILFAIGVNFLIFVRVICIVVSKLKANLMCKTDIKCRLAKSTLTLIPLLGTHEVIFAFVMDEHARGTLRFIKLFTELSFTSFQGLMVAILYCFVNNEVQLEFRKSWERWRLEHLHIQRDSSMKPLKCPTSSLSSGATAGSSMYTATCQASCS

SMILES | Potency | activity change, negative = inhibition
CCCCCC(O)(c1ccccc1)C(CN1CCOCC1)c1ccccc1 (stereo not drawn) | active: 10 µM | 
Cc1nc(Nc2ccccc2Cl)sc1C(=O)Nc1ccccc1 | inconclusive [inhibitor, partial curve, poor fit] | 
O=C(NC(=S)Nc1cc([N+](=O)[O-])ccc1O)c1cccnc1 | inconclusive [inhibitor, single point] | 
Cc1c(/C=N/NC(=O)C(NC(=O)c2ccc3c(c2)OCO3)C(C)C)c2ccccc2n1C (stereo not drawn) | inconclusive [inhibitor, full curve, poor fit] | 
COc1ccc(C2C(O)C(c3c[nH]c4ccccc34)=NN2C(=O)CCl)cc1 (stereo not drawn) | inconclusive [inhibitor, full curve, poor fit] | 
CNC(=S)N/N=C/c1ccccc1Cl | inconclusive [inhibitor, single point] | 
Cc1nc(-c2ccccc2)sc1C(=O)CSc1ccccc1 | inconclusive [inhibitor, single point] | 
CCc1ccc(NC(=O)Cn2c(SC)nc3ccccc32)cc1 | inconclusive [inhibitor, full curve, poor fit] | 
COc1cc(NC(=O)CCc2nc(-c3cccs3)no2)cc(OC)c1OC | inconclusive [inhibitor, partial curve] | 
Cc1ccc(Cl)cc1N1CCN(C(=O)c2cccc3c(=O)c(C)c(-c4ccccc4)oc23)CC1 | inconclusive [inhibitor, single point] | 
CC1Cc2ccccc2N1C(=S)NC(=O)c1ccco1 (stereo not drawn) |  | inactive: -17.1%
COC(=O)c1ccc(C)c(NS(=O)(=O)c2ccc(NC(C)=O)cc2)c1 |  | inactive: 20.3%
CC(C)(C)c1ccc(C(=O)N2CCCN(c3ccc([N+](=O)[O-])cn3)CC2)cc1 | inconclusive [inhibitor, single point] | 
CCc1c(-c2ccccc2)nc2ccccc2c1C(=O)NCCc1ccccc1 | inconclusive [inhibitor, partial curve, poor fit] | 
CCOc1ccccc1NC(=O)COC(=O)c1cc(C(=O)OC)cc([N+](=O)[O-])c1 |  | inactive: -7.05%
CCC(C)(C)C(=O)Nc1nnc(CCc2ccccc2)s1 | inconclusive [inhibitor, single point] | 
CC(C)c1ccc(NC(=S)N2CCN(Cc3ccccc3)CC2)cc1 | inconclusive [inhibitor, partial curve, poor fit] | 
CSc1cccc(NC(=O)Cn2c3ncccc3c(=O)n2-c2ccc(C)cc2)c1 | inconclusive [inhibitor, single point] | 
Cc1cc(C(=O)CN2C(=O)C(=O)N(CC(C)C)C2=O)c(C)n1C1CC1 |  | inactive: 7.74%
Cc1ccc(N/C(SCc2ccccc2C)=C(/C#N)C(=O)NCc2ccco2)cc1C | inconclusive [inhibitor, partial curve, poor fit] | 
Cc1onc(-c2ccccc2)c1C(=O)N/N=C/C=C/c1ccccc1 |  | inactive: -26.7%

SMILES | Potency | activity change, negative = inhibition
COc1ccccc1NC(=O)C(CC(=O)O)Cc1cc(C)cc(C)c1 (stereo not drawn) |  | inactive: -6.79%
C=CCNC(=O)c1ccc(CN(c2ccc(OCC)cc2)S(=O)(=O)c2ccc(C)cc2)cc1 | inconclusive [inhibitor, partial curve, poor fit] | 
COc1ccc(S(=O)(=O)N2CCOC2CNC(=O)C(=O)NCCc2c[nH]c3ccccc23)cc1C (stereo not drawn) | inconclusive [inhibitor, single point] | 
CCN(CC(=O)NC(=O)NC1CCCCC1)Cc1ccccc1 | inconclusive [inhibitor, single point] | 
O=C(CCCc1c[nH]c2ccccc12)NCCc1c[nH]c2ccccc12 | inconclusive [inhibitor, partial curve, poor fit] | 
O=C(COc1ccc2ccccc2c1)N1c2ccccc2Sc2ccccc21 | inconclusive [inhibitor, partial curve, poor fit] | 
CCCS(=O)(=O)N1CCCC(C(=O)NCCc2ccc(Cl)cc2)C1 (stereo not drawn) | inconclusive [inhibitor, single point] | 
Cc1ccc2c(c1)N(CC(=O)N1CCN(c3nc4ccccc4s3)CC1)C(=O)C(C)O2 (stereo not drawn) | inconclusive [inhibitor, single point] | 
C[n+]1cccc(O)c1SCc1ccccc1 | inconclusive [inhibitor, partial curve, poor fit] | 
O=C(COc1ccc(F)cc1)Nc1ccc2nc(SCC(=O)N3CCc4ccccc43)sc2c1 |  | inactive: 0.365%
COc1ccc2c(c1)[nH]c1c(N3CCN(Cc4ccc5c(c4)OCO5)CC3)ncnc12 | inconclusive [inhibitor, partial curve, poor fit] | 
COc1ccccc1CNC(=O)c1ccc(N2CCCC2)c(NC(=O)NCCC(C)C)c1 |  | inactive: 10.5%
COc1ccc(CNC(=O)C[C@H]2C[C@H](C(=O)N3CCCCC3)[C@@]3(C)c4[nH]c5ccc(Cl)cc5c4CCN3C2=O)cc1OC | inconclusive [inhibitor, single point] | 
Cn1c(=O)c2c(O)c([N+](=O)[O-])c(=O)n(C)c2n(C)c1=O |  | inactive: 3.9%
O=C(/C=C/c1ccc([N+](=O)[O-])cc1)NCCc1ccc(F)cc1 | inconclusive [inhibitor, single point] | 
Cc1ccnc(NC(=O)c2ccc(Br)s2)c1 | inconclusive [inhibitor, single point] | 
CC(CC(=O)NCc1ccc(Cl)cc1)c1ccccc1 (stereo not drawn) | inconclusive [inhibitor, single point] | 
O=C(/C=C/c1cccc(F)c1)N1CCc2ccccc21 | inconclusive [inhibitor, full curve, poor fit] | 
CCOC(=O)c1ccc2oc(=O)n(Cc3ccccc3)c2c1 | inconclusive [inhibitor, partial curve, poor fit] | 
O=C(c1cccs1)N1CCc2c([nH]c3ccccc23)C1c1ccc(Cl)cc1 (stereo not drawn) | inconclusive [inhibitor, partial curve, poor fit] | 
CC(=O)Nc1ccc(C2Sc3ccccc3NC3=C2C(=O)c2ccccc23)cc1 (stereo not drawn) |  | inactive: -16.6%

SMILES | Potency | activity change, negative = inhibition
C/C(CC(=O)Nc1ccc2c(c1)OCCO2)=N\NC(=O)c1ccccc1Cl | inconclusive [inhibitor, partial curve, poor fit] | 
Cc1c(O)ccc2c3c(c(=O)oc12)CCC(C)C3 (stereo not drawn) |  | inactive: 28.4%
CC(C)CN(CC(C)C)C(=O)CN1C(=O)NC2(CCCc3ccccc32)C1=O (stereo not drawn) | inconclusive [inhibitor, single point] | 
COc1ccc(NC(=O)C2Cc3cccc(OC)c3O/C2=N\O)cc1 (stereo not drawn) | inconclusive [inhibitor, partial curve, poor fit] | 
O=C(CSc1nc2ccccc2o1)N1c2ccccc2Sc2ccc(Cl)cc21 | inconclusive [inhibitor, single point] | 
N/C(=N\OC(=O)c1cccc(Br)c1)c1ccncc1 |  | inactive: 17.6%
COc1ccc(CCN(C(=O)C(F)(F)F)C(C(=O)NC2CCCCC2)c2ccc(C)s2)cc1 (stereo not drawn) | inconclusive [inhibitor, partial curve, poor fit] | 
CCc1nc2c(OCc3ccc(OC(F)F)cc3)cccn2c1N(C)C(=O)c1cccs1 | inconclusive [inhibitor, single point] | 
Cc1ccccc1NC(=O)c1cccc(N2C(=O)C3C4CC(C(Br)C4Br)C3C2=O)c1 (stereo not drawn) | inconclusive [inhibitor, partial curve] | 
S=C(c1ccc2c(c1)OCO2)N1CCN(c2cccc(Cl)c2)CC1 | inconclusive [inhibitor, partial curve, poor fit] | 
O=S(=O)(NC1CCCCC1Nc1ccc(Cl)cc1)c1ccccc1 (stereo not drawn) | inconclusive [inhibitor, partial curve, poor fit] | 
CCOc1cccc2cc(-c3nc4ccc(C(=O)O)cc4[nH]3)c(=O)oc12 | inconclusive [inhibitor, partial curve, poor fit] | 
Cc1cc(C(=O)N/N=C/c2ccco2)c2ccccc2n1 | inconclusive [inhibitor, single point] | 
O=C(COC(=O)Cc1cccc2ccccc12)Nc1ccccc1-c1ccccc1 | inconclusive [inhibitor, single point] | 
Clc1ccc(-c2cc(C3CCNCC3)[nH]n2)c(Cl)c1 | inconclusive [inhibitor, partial curve, poor fit] | 
O=[N+]([O-])c1ccc(O)c(C(C#Cc2ccccc2)N2CCOCC2)c1 (stereo not drawn) | inconclusive [inhibitor, single point] | 
Cc1ccccc1S(=O)(=O)Cc1ccc(C(=O)NC2CCCCC2)o1 | inconclusive [inhibitor, partial curve, poor fit] | 
CC1=CC(C)(C)N(C(=O)CCl)c2ccccc21 | inconclusive [inhibitor, single point] | 
CCC1(c2ccccc2)NC(=O)N(CC(=O)Nc2cccc(S(=O)(=O)N3CCCCC3)c2)C1=O (stereo not drawn) | inconclusive [inhibitor, partial curve, poor fit] | 
COc1ccc2c(c1)CC(NC(=O)Nc1c(C)cc(C)cc1C)CO2 (stereo not drawn) |  | inactive: 5.65%
Cc1cc(S(=O)(=O)Nc2ccc3cn[nH]c3c2)c(C)cc1Cl | inconclusive [inhibitor, partial curve, poor fit] | 
